Measurements published in PubChem BioAssay AID488969 (Vanderbilt High Throughput Screening Facility, 2010).
Whole data set: some 110,000 compounds, median “z-score” near -0.1, cut for the highest 2% near 2. The list shows a part of the results. The source made the active and inactive calls.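 Rule for the calls: active = z-score in the third read window above 3 or below -3; inactive = the rest.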

target: Metabotropic glutamate receptor 8 (Rattus norvegicus) (UniProt P70579); assay: rat mGluR8 modulators via GIRK flux, primary screen, cell-based, thallium flux, HTS (AID 488969); conditions: HEK293 rat mGluR8, GIRK (G protein-gated inwardly rectifying potassium channel) thallium flux, FluoZin2; at 10 µM; stronger effect = higher value; submaximal glutamate (EC20) added with thallium
UniProt P70579, sequence (P70579 whole entry, looked up): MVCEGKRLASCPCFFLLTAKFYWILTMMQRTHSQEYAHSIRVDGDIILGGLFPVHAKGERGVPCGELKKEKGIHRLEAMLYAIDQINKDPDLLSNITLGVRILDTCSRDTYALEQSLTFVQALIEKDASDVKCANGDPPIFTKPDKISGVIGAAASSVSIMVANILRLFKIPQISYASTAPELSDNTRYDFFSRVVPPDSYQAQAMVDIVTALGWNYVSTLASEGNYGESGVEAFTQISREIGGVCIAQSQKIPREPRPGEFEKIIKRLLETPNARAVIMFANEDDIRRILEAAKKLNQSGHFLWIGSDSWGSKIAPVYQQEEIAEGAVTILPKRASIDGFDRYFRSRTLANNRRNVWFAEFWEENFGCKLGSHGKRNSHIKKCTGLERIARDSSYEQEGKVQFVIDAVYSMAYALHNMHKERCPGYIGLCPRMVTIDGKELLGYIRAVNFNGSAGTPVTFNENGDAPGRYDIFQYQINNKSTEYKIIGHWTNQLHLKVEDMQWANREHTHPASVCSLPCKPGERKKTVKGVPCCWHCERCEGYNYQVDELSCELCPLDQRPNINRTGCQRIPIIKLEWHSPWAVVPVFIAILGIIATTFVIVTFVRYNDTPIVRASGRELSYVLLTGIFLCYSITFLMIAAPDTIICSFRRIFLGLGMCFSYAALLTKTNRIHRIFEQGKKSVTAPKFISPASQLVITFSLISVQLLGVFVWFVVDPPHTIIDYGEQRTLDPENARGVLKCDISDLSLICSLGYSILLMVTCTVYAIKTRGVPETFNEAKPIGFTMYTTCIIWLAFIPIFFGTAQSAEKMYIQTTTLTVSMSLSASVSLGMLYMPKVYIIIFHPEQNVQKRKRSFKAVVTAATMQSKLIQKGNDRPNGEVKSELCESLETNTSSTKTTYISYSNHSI

Row | SMILES | z-score
1 | COc1cccc(-c2nc(CSCC(=O)N3CCc4ccccc43)c(C)o2)c1 | -0.531
2 | CCOC(=O)CSc1nc(NCc2ccco2)c2ccccc2n1 | 1.29
3 | Cc1ccc(/C=N/N=C/c2ccc(C)s2)s1 | -0.249
4 | Cc1ccc(NC(=O)CCn2cnc3cc(C)c(C)cc32)cc1 | -0.642
5 | COC1=CC(=O)OC12CCCCC2 | 0.523
6 | CN1CCN(C(=O)c2cc3nc(-c4ccc(F)cc4)cc(C(F)(F)F)n3n2)CC1 | -1.43
7 | Cc1ccc(NC(=O)c2cc(S(=O)(=O)N3CCOCC3)c(Br)s2)cc1 | -0.348
8 | CC(=O)N1CN(C2CC(C)(C)NC(C)(C)C2)Cc2c1sc1c2CCCC1 | 0.426
9 | Cc1cccc(Nc2cnn(C34CC5CC(CC(CC(=O)O)(C5)C3)C4)c(=O)c2Cl)c1 | -0.467
10 | CCOc1ccc(NC2CCN(C(C)=O)CC2)cc1 | -0.298
11 | CCn1c(=O)c(NC(=O)c2ccccc2)c2n(c1=S)CCCCC2 | -0.376
12 | CCOc1ccc2cc(C#N)c(SCC(=O)OC)nc2c1 | -0.0839
13 | CC1CCN(S(=O)(=O)N2CCC(C(=O)O)CC2)CC1 | 0.0649
14 | CC(=O)Nc1ccccc1C(=O)N1CC2(C)CC1CC(C)(C)C2 (centres undefined) | 0.0101
15 | COCCn1c(SCC(=O)Nc2cc(C)nn2-c2ccccc2)nnc1-c1ccncc1 | -0.231
16 | NNC(=O)COc1ccc(F)cc1 | -0.244
17 | COc1cccc(C(=O)NC(=S)Nc2ccc3oc(=O)ccc3c2)c1 | -0.0157
18 | Cc1[nH]n(-c2ccccc2)c(=O)c1/C=N/N1C(=O)c2ccc3c4c(ccc(c24)C1=O)CC3 | 0.331
19 | CCCN1CCC(N2CCN(c3cccc(C(F)(F)F)c3)CC2)CC1 | -0.0165
20 | O=C(O)CSc1nnc(-c2cc3ccccc3o2)n1-c1ccccc1 | 0.392
21 | c1ccc(CSc2nnc3c(n2)OC(c2ccco2)Nc2ccccc2-3)cc1 (centres undefined) | -0.268
22 | O=C(CN(Cc1ccccc1C(F)(F)F)C(=O)CNC(=O)c1ccco1)NC1CCCC1 | 0.253

Row | SMILES | z-score
23 | COc1cc2c(cc1OC)CN(CC(=O)Nc1ccccc1C#N)CC2 | -0.37
24 | CCCN(CC(=O)Nc1ccc(Cl)cc1Cl)C(=O)/C=C/c1cc(OC)ccc1OC | -0.408
25 | O=C(OC(C(=O)Nc1ccc(Cl)cc1C(F)(F)F)c1ccccc1)c1c(Cl)cccc1Cl (centres undefined) | -0.0451
26 | COc1ccc(C2SCCN2C(=S)Nc2cccc(C(F)(F)F)c2)cc1 (centres undefined) | 0.549
27 | O=C(COC(=O)COc1ccc(Nc2ccccc2)cc1)NCc1ccco1 | -1.3
28 | Cn1cc(Cl)c(C(=O)Nc2nc3ccc(Cl)cc3s2)n1 | 0.119
29 | Cc1ccccc1NC(=O)C(=O)NC(C)CCc1ccccc1 (centres undefined) | active: 7.37
30 | COC(=O)c1cc(C(=O)OC)cc(N2C(=O)CC(NNC(=O)c3ccc(C)cc3)C2=O)c1 (centres undefined) | 0.447
31 | COc1ccc(C2c3sc(=O)[nH]c3SC3C4CCC(C4)C23)cc1 (centres undefined) | 0.476
32 | COCCn1c(-c2ccccc2)nc2c(c(=O)c3ccccc3n2C)c1=O | -0.576
33 | CC(C)Nc1ncnc2c1nnn2Cc1ccccc1 | -0.084
34 | O=C(NCc1cccs1)c1cnc2ccccn2c1=O | -0.178
35 | COc1ccc(/C=C2\SC(=O)N(CCNC(=O)C3CC(=O)N(c4ccccc4)C3)C2=O)cc1 (centres undefined) | -0.349
36 | CCn1nc(NC(=O)c2ccccn2)c2cc3cccc(C)c3nc21 | 0.101
37 | OC(COCc1ccc(Cl)cc1)CN1CCN(c2ccccn2)CC1 (centres undefined) | -0.147
38 | COc1ccccc1OCC(=O)N/N=C1\CCc2ccccc21 | -0.32
39 | O=S1(=O)C=C(SCCN2CCCCC2)c2ccccc21 | 0.71
40 | O=C(Nc1cnn(Cc2ccc(Cl)cc2)c1)C1CCCC1 | -0.0534
41 | CCCn1c(=O)c2c(C(=O)OCC)cc(-c3ccco3)nc2n(CCC)c1=O | -0.597
42 | CCN(c1ccc(NC(=O)COC(=O)CCC(=O)c2ccc(F)cc2)cc1)C(C)C | -0.471
43 | COc1ccc(NC(=O)Cn2cc(C(=O)c3ccco3)c3ccccc32)cc1 | -0.14
44 | CCOCCCn1c(=N)c(C(=O)NCc2ccc3c(c2)OCO3)cc2c(=O)n3ccccc3nc21 | 0.357

Row | SMILES | z-score
45 | O=C1CCc2cc(S(=O)(=O)N3CCCC3C(=O)N3CCN(c4ccccc4F)CC3)ccc2N1 (centres undefined) | -0.194
46 | C=C(C)c1nc2cc(OC)c(OC)cc2c(=O)o1 | -1.11
47 | COc1ccc(-c2[nH]ncc2/C=C(\C#N)C(=O)NC2CC2)cc1 | 0.216
48 | Cc1ccc(S(=O)(=O)N2CCC(C(=O)NCCCOC(C)C)CC2)cc1 | 0.131
49 | Cc1c(N(C)C)nc2ccccc2c1N | 2.03
50 | Cc1ccc(C)c(NC(=O)CN(C)C(=O)[C@@H](NC(=O)c2ccc(C(C)(C)C)cc2)C(C)C)c1 | -0.175
51 | CN(C)c1nc(OCCOC(=O)c2ccccc2)nc(N(C)C)n1 | 1.45
52 | CCCCCOC(=O)Nc1ccc(S(=O)(=O)Nc2cccc([N+](=O)[O-])c2)cc1 | -0.097
53 | CC(=O)N1CCc2cc(S(=O)(=O)CCC(=O)NCc3ccc4c(c3)OCO4)ccc21 | -0.0913
54 | CC(Sc1nc(-c2ccccc2)cc(C(F)(F)F)n1)C(=O)N1CCCCC1 (centres undefined) | -0.227
55 | C=CCC(NCc1ccccc1)c1ccc(C)o1 (centres undefined) | 0.143
56 | CC1CCCN(CC(=O)Nc2ccc(S(=O)(=O)N3CCCCC3)cc2)C1 (centres undefined) | 1.13
57 | CCOC(=O)c1c(C)[nH]c(C(=O)COC(=O)CSCC(=O)N(CC)CC)c1C | -0.411
58 | COc1cc(NC(=O)C2CCCO2)c(OC)cc1Cl (centres undefined) | -0.106
59 | N#CCCSc1nc(N2CCOCC2)c2c(c1C#N)CCCC2 | -1.56
60 | CC(=O)N1CCC(O)(c2cccc(C(F)(F)F)c2)CC1 | 0.105
61 | CC(C)CC(NC(=O)c1ccco1)C(=O)Nc1ccc2c(c1)OCCO2 (centres undefined) | -0.411
62 | Cc1c(NC(=O)COC(=O)c2cc(-c3cccc4ccccc34)nc3ccccc23)c(=O)n(-c2ccccc2)n1C | -0.0754
63 | COc1cc(OC)cc(-c2nc3ccccc3s2)c1 | -0.129
64 | Cc1ccc(NC(=O)/C(=C\C=C\c2ccccc2)NC(=O)c2ccccc2)cc1 | 0.255
65 | COc1ccc(OCCSc2nnc(CCNC(=O)c3ccc(OC)cc3)n2C)cc1 | -0.0847
66 | COc1ccccc1CNC(=O)C1CCCN(S(=O)(=O)c2cccc3cccnc23)C1 (centres undefined) | 0.0773

Row | SMILES | z-score
67 | CCN(CC)c1ccc(/C=C/c2nc3ccccc3s2)cc1 | -0.178
68 | COc1cc(/C=N/NC(=O)c2ccoc2C)cc(OC)c1OC | -0.182
69 | COc1cccc(C(=O)N(Cc2ccc3c(c2)OCO3)Cc2nc3ccccc3c(=O)[nH]2)c1 | -0.152
70 | CC1CCN(S(=O)(=O)c2ccc(S(=O)(=O)NCC(=O)C(C)(C)C)cc2)CC1 | 1.53
71 | CCOc1ccccc1N(CC(=O)Nc1cc(OC)ccc1OC)S(C)(=O)=O | 0.0169
72 | O=S(=O)(Nc1nc2ccccc2nc1NCc1ccco1)c1cccs1 | -0.0891
73 | CCCCN1C(=O)NC(NC(=O)c2ccco2)(C(F)(F)F)C1=O (centres undefined) | -0.734
74 | O=C(/C=C/c1cccs1)NC(=S)NNC(=O)Cc1cccs1 | 1.65
75 | COc1ccc(NC(=O)CSc2nnc(-c3ccccn3)n2-c2ccccc2)cc1OC | -0.14
76 | O=C(O)CCC(=O)Nc1ccc(Br)cn1 | 0.224
77 | CCOC(=O)CC1C(=O)NCCN1C(=O)c1c(F)cccc1F (centres undefined) | 0.00182
78 | COc1ccc(NC(=O)Cc2c(C)n(C(=O)c3ccc(Cl)cc3)c3ccc(OC)cc23)cc1 | -0.319
79 | CN(C)CCCNc1oc(-c2cccc(Cl)c2)nc1C#N | -0.825
80 | CC(C)CC(=O)Nc1ccc(C(=O)NN2C(=O)c3ccccc3C2=O)cc1 | -0.193
81 | CCOC(=O)CCNc1n[nH]c(=O)[nH]c1=O | -0.0811
82 | NC(=O)C1CCN(C(=O)CN2CCc3ccccc32)CC1 | -0.185
83 | Cc1cnc(C(=O)Nc2ccc(-n3cnnn3)cc2)cn1 | -0.44
84 | O=S(=O)(Nc1nccs1)c1ccc(Cl)cc1 | -0.192
85 | CCNc1ccc(C(=O)OCC(=O)N(Cc2ccccc2)C(C)(C)C)cc1[N+](=O)[O-] | -0.16
86 | CC1CN(c2oc(Cc3cccc4ccccc34)nc2C#N)CC(C)O1 (centres undefined) | -0.707
87 | CN(CC(=O)Nc1ccc(Cl)c(C(F)(F)F)c1)C(=O)/C=C/c1ccco1 | -0.13
88 | Cc1cc(NC(=O)CSc2nnnn2Cc2ccccc2)no1 | 0.316

Row | SMILES | z-score
89 | COc1ccccc1C(=O)Nc1nnc(SCC(=O)Nc2ccc3c(c2)oc2ccccc23)s1 | -0.265
90 | CCOC(=O)c1ccc(NC(=O)CSc2nc3c(c(=O)n2C)SC(C)C3)cc1 (centres undefined) | -0.66
91 | CCOC(=O)c1c(C)oc2c1c1c(c3ccccc32)OCN(Cc2cccnc2)C1 | -0.341
92 | CCN(CC)c1nc(SCC(=O)O)nc(N(CC)CC)n1 | 0.0323
93 | CS(=O)(=O)NCc1ccc(C(=O)NC2CCCCC2)cc1 | 0.203
94 | Cc1ccc2cc(C#N)c(N3CCN(C)CC3)nc2c1 | -0.337
95 | Cc1nccn1CCCN1C(=O)OC2(CCCCC2)C1(C)O (centres undefined) | -0.286
96 | COc1ccc(N2CSC3=C(C#N)C(c4cc(OC)ccc4OC)CC(=O)N3C2)c(OC)c1 (centres undefined) | -0.112
97 | COc1cc(C)c(/C=C(\C#N)C(=O)Nc2ccc(C)cc2)cc1C(C)C | -0.101
98 | Cc1ccc(N2C(=O)NC(NC(=O)c3ccc(Cl)cc3)(C(F)(F)F)C2=O)cc1 (centres undefined) | -0.201
99 | Cc1nc2c(C(=O)NCCc3ccccc3)c[nH]n2c(=O)c1Cl | -1.9
100 | Cc1nc2ccc(F)cc2cc1C(=O)Nc1ccc(Cl)c(Cl)c1 | 0.146
101 | O=[N+]([O-])c1ccc2c(c1)C(N1CCOCC1)/C(=C/COc1ccc(Cl)cc1Cl)O2 (centres undefined) | 0.0252
102 | O=C(COc1cccc(Br)c1)NN=C1c2ccccc2-c2ccccc21 | 0.184
103 | Cc1nnc(SCC(=O)NCc2ccco2)n1Cc1ccccc1 | 1.71
104 | COc1cc(C)c(S(=O)(=O)Nc2ccccc2F)cc1C | 0.015
105 | Cc1ccc(C)c(S(=O)(=O)C(C#N)c2nc3ccccc3nc2N2CC(C)OC(C)C2)c1 (centres undefined) | -0.827
106 | Cc1cc(C)cc(COn2ccnc2)c1 | 1.24
107 | O=C(c1ccco1)c1cn(CC(=O)N2CCCCC2)c2ccccc12 | 0.173
108 | CC(C)NC(=O)CC1Nc2c3ccccc3nc(=S)n2C1=O (centres undefined) | -0.0355
109 | CCOc1ccccc1-n1c(SCC(=O)NCc2ccco2)nnc1-c1ccncc1 | 0.345
